Reference: the supplement of paper PMC3334620
The full ranking holds about 33,000 sequences; the median of “E-score (-0.5 to 0.5)” is about -0.056, and the highest 2% start at about 0.38. This is one part of the list.

Biological target: Stb4 (UniProt P50104)
Assay: PBM E-score (8-mer binding enrichment) (E-score (-0.5 to 0.5)); higher = stronger / more preferred TF binding; most listed sequences are background and not binding sites
Conditions: protein concentration: 200 nM; construct: GST-DNA-binding domain
How it was run: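 Yeast transcription factors carrying a GST tag, as full-length proteins or DNA-binding domains, were produced by PURExpress in vitro transcription/translation. About 100-200 nM protein was applied to universal all-10-mer Agilent arrays, double-stranded by primer extension on fresh or once-stripped slides. Bound protein was detected with fluorescent anti-GST, and scans were normalised with masliner. The Universal PBM Analysis Suite gave each ungapped eight-base word, pooled with its reverse complement, an E-score, a modified Wilcoxon-Mann-Whitney statistic.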

Row | Sequence | PBM E-score
1 | ATTCCCCC | 0.0951
2 | ATCACTCC | 0.0118
3 | CACGCCCC | 0.0645
4 | ATACGCAG | -0.262
5 | GTGCAGTA | 0.112
6 | GAGCTGGA | -0.0262
7 | GCCAACAC | 0.212
8 | CAATCTTC | 0.0234
9 | ACGCTTCT | -0.115
10 | CCCGTACA | 0.00392
11 | GATAGCTA | 0.0444
12 | CGACTGAC | -0.101
13 | CAAATATC | 0.16
14 | GTACCAGA | -0.259
15 | CCGCGCAA | 0.0559
16 | CGATTCGA | 0.00951
17 | ACACTAGT | -0.248
18 | AATGCCCC | -0.117
19 | AATTGGGA | 0.0291
20 | AACCTGTG | -0.123
21 | TAACGCTA | -0.0688
22 | ATGGCTTG | -0.155

Row | Sequence | PBM E-score
23 | ATTTACTG | -0.142
24 | AACAATGT | -0.0925
25 | AGATAGCG | -0.113
26 | AACGACCG | -0.0706
27 | AGTAAATA | 0.0993
28 | ATCTCTGC | -0.0871
29 | CGACGCTC | -0.00583
30 | GTTTGCAA | -0.113
31 | AGGTTGTC | -0.176
32 | CTGGGCCC | -0.157
33 | CCTAGTCG | -0.11
34 | CTACGAGC | -0.133
35 | ACGCTGTC | -0.0299
36 | AAGGCCTC | -0.176
37 | ATATTTTC | 0.0943
38 | ACTCAAGA | -0.137
39 | CTGCACAC | -0.221
40 | GACCGCCA | -0.0552
41 | AACTTGGG | 0.0814
42 | CGTGAGTA | -0.122
43 | AAGCTCGC | -0.0388
44 | CACCACCC | 0.101

Row | Sequence | PBM E-score
45 | CAACCGCA | 0.0396
46 | ATGATCTC | -0.159
47 | CGTACTTA | -0.219
48 | CACTCTGG | -0.221
49 | AGCCAATA | -0.174
50 | GAGAAGGC | -0.246
51 | AAATAGTC | -0.0244
52 | GGAATCTA | 0.181
53 | CCATGGGG | -0.123
54 | CACTCCCC | 0.16
55 | CGAGGTGA | 0.104
56 | CTCCCTGA | -0.245
57 | AAGCTAAC | -0.157
58 | ATATTGAG | -0.115
59 | AATTGCCT | -0.0946
60 | CCGTCTTC | 0.222
61 | AGACCCAT | -0.235
62 | ACGGAGAA | 0.0192
63 | CACCAAAG | -0.0243
64 | CTACCTGA | -0.083
65 | ATGAACCC | 0.0956
66 | CGGGAGCA | 0.316

Row | Sequence | PBM E-score
67 | CACTTTGC | -0.0625
68 | GGTGCAGA | -0.211
69 | GCAGCAAC | -0.0766
70 | TATGTCCA | -0.0533
71 | AGCGCTGG | -0.166
72 | AACTTCCA | 0.132
73 | AATCCATT | -0.067
74 | AGGCCGAT | 0.113
75 | GATGCAGC | 0.0698
76 | CAATTTCC | 0.259
77 | ATACATCC | 0.239
78 | CAACTAGG | -0.0487
79 | AGCAACAG | 0.0175
80 | CGCGTCTA | -0.145
81 | GCTCCGGA | 0.346
82 | ACGGTCTA | -0.0985
83 | TGCTTACA | -0.285
84 | ACGTATTG | -0.211
85 | GCACGGAC | 0.13
86 | ATACGCCC | -0.0994
87 | GAGGGGGC | -0.125
88 | CATTACTA | -0.106

Row | Sequence | PBM E-score
89 | AGGTTCTA | -0.0621
90 | CAAGCAGC | -0.156
91 | ATCCACGA | -0.273
92 | ATAAGAAG | 0.106
93 | ACAAGAGT | -0.0988
94 | ATGTTCAG | -0.264
95 | CACTGTAA | -0.144
96 | CTGACACA | -0.165
97 | CAGTTCGC | -0.194
98 | GAAATCAA | -0.00426
99 | AATAAAGC | -0.0678
100 | CATATTGG | -0.195
101 | CGATAGAA | -0.00777
102 | CTTGGCGC | -0.123
103 | ACCGGAGG | 0.228
104 | AGACCCCA | -0.056
105 | ACGGATCG | 0.315
106 | TGAGCCCA | -0.221
107 | ATGAGACG | -0.0812
108 | ACAGAGGA | -0.262
109 | AGGATCGG | 0.237
110 | AGACCCGC | 0.174
